Values joined by “and” are separate entries in the source; they are usually repeats but may differ in a detail not shown here. Equal entries are not always repeated. Among all 360,000 compounds or so, about 25,000 (6.9%) were called active. Inconclusive results, whose numbers are uncertain, are shown with a selection of clear calls. Calls come from the whole dose curve; as a rule, active = well fitted inhibition curve with a large enough effect; inconclusive = small, poorly fitted or top-dose-only effect; inactive = flat fitted curve, though single readings scatter. Potencies beside an inconclusive call are fits to weak or partial responses and may not hold up.
target: Luciferin 4-monooxygenase (Photinus pyralis) (UniProt P08659); test: qHTS profiling assay for firefly luciferase inhibitor/activator using purifed enzyme and Km concentrations of substrates (counterscreen for miR-21 project); settings: purified FLuc, luminescence inhibition; series mostly up to 57.5 µM; activity change, negative = inhibition: at the top concentration; note: nearly all actives have a fitted effect of over 55% in size;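 for activity change, negative = inhibition: plate controls were vehicle for no effect and reference inhibitor for full effect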
Sequence of UniProt P08659 (P08659 whole entry, looked up): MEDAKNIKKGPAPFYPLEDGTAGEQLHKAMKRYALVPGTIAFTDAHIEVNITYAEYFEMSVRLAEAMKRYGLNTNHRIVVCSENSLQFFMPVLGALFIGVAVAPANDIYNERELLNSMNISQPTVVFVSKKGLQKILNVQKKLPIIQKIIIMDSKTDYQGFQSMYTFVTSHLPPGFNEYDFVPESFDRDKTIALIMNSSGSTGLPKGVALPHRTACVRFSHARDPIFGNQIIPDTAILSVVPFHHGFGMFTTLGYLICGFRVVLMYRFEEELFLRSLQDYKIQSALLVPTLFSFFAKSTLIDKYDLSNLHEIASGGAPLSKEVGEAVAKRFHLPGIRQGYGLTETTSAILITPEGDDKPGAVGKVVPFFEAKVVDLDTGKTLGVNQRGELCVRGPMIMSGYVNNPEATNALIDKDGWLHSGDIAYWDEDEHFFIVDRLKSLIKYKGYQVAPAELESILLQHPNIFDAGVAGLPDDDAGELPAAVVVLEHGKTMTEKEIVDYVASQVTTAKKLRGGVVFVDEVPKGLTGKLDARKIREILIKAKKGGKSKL
Outline: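 Purified P. pyralis luciferase (10nM final) with 10uM D-luciferin and 10uM ATP (Km levels) in 50mM Tris acetate pH 7.5, 10mM Mg acetate, 0.01% Tween-20, 0.05% BSA; qHTS 6-point titration, ~60 µM downward; luminescence read.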
Potency is the fitted concentration of half-maximal effect; tags give direction and shape of the fitted curve.

Compound	Potency	activity change, negative = inhibition
CC(C)(C)c1ccc(C(=O)COC(=O)CN2C(=O)NC3(CCCC3)C2=O)cc1	active: 8.49 µM	–
CC(C)c1nnc(NC(=O)c2cccnc2)s1	inconclusive: 37.9 µM [inhibitor, single point]	–
COc1cccc(C(=O)/C=C/c2ccc(N3CCCCC3)c([N+](=O)[O-])c2)c1	active: 8.49 µM	–
COc1ccc(C2SCC(=O)N2c2nc3ccccc3s2)cc1 (stereo unspecified)	inconclusive: 23.9 µM [inhibitor, single point]	–
Cc1ccc2nc(N(CCCN(C)C)C(=O)c3sc4ccccc4c3Cl)sc2c1	inconclusive: 26.9 µM [inhibitor, partial curve]	–
Cc1cc(NC(=O)c2cccnc2)ccc1Br	inconclusive: 26.9 µM [inhibitor, partial curve]	–
CCOc1ccc(C(=O)Nc2nnc(S(=O)(=O)N(CC)c3ccccc3C)s2)cc1	inconclusive: 19 µM [inhibitor, partial curve, poor fit]	–
O=C(Cc1ccccc1)Nc1c(C(=O)N2CCN(c3ccc(F)cc3)CC2)oc2ccccc12	–	inactive: -1.18%
O=C(CCCN1C(=O)/C(=C\c2ccccc2)SC1=S)Nc1cccc(C(=O)O)c1	inconclusive: 19 µM [inhibitor, partial curve, poor fit]	–
O=C(OCc1nnc(-c2ccccc2)o1)c1cc(=O)c2ccccc2o1	inconclusive: 30.1 µM [inhibitor, partial curve, poor fit]	–
CN(C)c1ncc(S(=O)(=O)c2ccccc2)c(-c2ccccc2Cl)n1	–	inactive: 0.942%
O=C(CSc1ccccc1C(=O)O)NCc1ccccc1	inconclusive: 19 µM [inhibitor, single point]	–
CC(=O)c1ccc(NC(=O)C(C)Sc2ccccn2)cc1 (stereo unspecified)	inconclusive: 30.1 µM [inhibitor, single point]	–
CC(=O)c1ccc(NC(=O)CSc2nnc(NC(=O)CN3CCOCC3)s2)cc1	inconclusive: 23.9 µM [inhibitor, partial curve, poor fit]	–
CCc1ccc(NC(=O)COC(=O)c2cccs2)cc1	active: 6.75 µM	–
C=CCn1c(SCc2csc(C)n2)nc2sc3c(c2c1=O)CCC(C)C3 (stereo unspecified)	inconclusive: 16.9 µM [inhibitor, partial curve]	–
O=C(CN1CCOCC1)Nc1c(Cl)cc(Cl)cc1Cl	–	inactive: -0.972%
CC(C)(C)c1ccc(S(=O)(=O)NC(Cc2ccccc2)C(=O)O)cc1 (stereo unspecified)	inconclusive: 8.49 µM [inhibitor, partial curve, poor fit]	–
CC(=O)c1ccc(NC(=O)c2ccc(NC(=O)CCS(=O)(=O)c3cccs3)cc2)cc1	inconclusive: 12 µM [inhibitor, partial curve, poor fit] and inconclusive: 23.9 µM [inhibitor, single point]	–
NNC(=O)c1ccc2[nH]c3c(c2c1)CCCC3	inconclusive: 33.8 µM [inhibitor, single point]	–
O=C(NC1=NCCS1)c1cccc2ccccc12	inconclusive: 37.9 µM [inhibitor, single point]	–
O=C(Nc1ccc2c(c1)OCCO2)c1cccc2nc3ccccc3nc12	inconclusive: 9.53 µM [inhibitor, partial curve, poor fit]	–
O=C(CCCc1cccs1)Nc1nc2c(s1)CCCC2	active: 23.9 µM	–
CSc1ccc(S(=O)(=O)N2CCC(C(=O)NCc3ccccn3)CC2)cc1	–	inactive: 0.872%

Compound	Potency	activity change, negative = inhibition
CCC/C=N/NC(=O)c1ccccc1O	inconclusive: 19 µM [inhibitor, partial curve]	–
COc1ccccc1CNC(=O)C1CC(c2ccc([N+](=O)[O-])cc2)=NO1 (stereo unspecified)	inconclusive: 30.1 µM [inhibitor, partial curve, poor fit]	–
COc1ccc(-c2cc(C(=O)OC3CCOC3=O)c3ccccc3n2)cc1OC (stereo unspecified)	active: 13.5 µM	–
COc1cccc(/C=N/NC(=O)c2ccc(=O)n(C)c2)c1O	inconclusive: 26.9 µM [inhibitor, partial curve, poor fit]	–
Cc1nc(N2CCN(S(=O)(=O)c3ccccc3)CC2)c2cc(-c3ccccc3)sc2n1	inconclusive: 4.78 µM [inhibitor, full curve]	–
CC(=O)Oc1ccc(-c2ccc(C(=O)OCC(=O)N(C)CC(=O)Nc3ccccc3Cl)cc2)cc1	inconclusive: 26.9 µM [inhibitor, single point]	–
COC(=O)[C@H](C)NC(=O)NCc1ccccc1	–	inactive: 0.057%
CCC(C)NC(=O)Cn1c(=O)n(-c2ccc(Cl)c(Cl)c2)c(=O)c2c(C)c(C(=O)N(CC)CC)sc21 (stereo unspecified)	–	inactive: 0.0235%
COc1ccc(C(=O)N2N=C(c3ccccc3)CC2(O)C(F)(F)F)cc1 (stereo unspecified)	inconclusive: 37.9 µM [inhibitor, partial curve, poor fit]	–
Cc1cc(C)c(C)c(S(=O)(=O)N2CCCCC2C(=O)O)c1C (stereo unspecified)	inconclusive: 23.9 µM [inhibitor, partial curve]	–
COc1ccc(C(=O)NC(=S)NC(C)C)cc1Br	inconclusive: 30.1 µM [inhibitor, single point]	–
COc1ccc(Nc2c(-c3ccc(C)o3)nc3ccc(Cl)cn23)cc1	–	inactive: 4.41%
N#Cc1nc(COc2ccc(-c3ccccc3)cc2)oc1NCCCN1CCOCC1	inconclusive: 37.9 µM [inhibitor, single point]	–
COc1cccc(Nc2nc(NCCO)c3ccccc3n2)c1	inconclusive: 23.9 µM [inhibitor, partial curve]	–
C/[N+]([O-])=C\CC(=O)c1ccc(-c2ccccc2)cc1	inconclusive: 33.8 µM [inhibitor, partial curve, poor fit]	–
O=C(Cn1cc([N+](=O)[O-])ccc1=O)NCc1ccc(Cl)cc1Cl	inconclusive: 12 µM [inhibitor, partial curve]	–
COc1ccccc1NC(=O)Cc1ccc(-c2ccccc2)cc1	inconclusive: 21.3 µM [inhibitor, partial curve, poor fit]	–
C#CC(C)(C)NC(=O)c1ccc(-c2ccccc2F)cc1	active: 19 µM	–
COc1ccc(-c2nn(-c3ccccc3)cc2C(=O)NC(=S)NNC(=O)c2ccncc2)cc1	inconclusive: 26.9 µM [inhibitor, partial curve, poor fit]	–
Cc1ccc2oc(C(=O)Nc3ccc(S(=O)(=O)Nc4ncccn4)cc3)c(C)c2c1	inconclusive: 3.38 µM [inhibitor, full curve]	–
O=C(CC1NCCNC1=O)Nc1ccccc1F (stereo unspecified)	–	inactive: 1.48%
CC(=O)N1CCN(Cc2nc3cc(NC(=O)NC4CCCCC4)ccc3n2C)CC1	–	inactive: -14%
Cc1n[nH]c(=S)n1/N=C/c1cccc(OCc2ccccc2)c1	inconclusive: 15.1 µM [inhibitor, partial curve, poor fit]	–
O=C(c1ccccc1Cl)N1N=C(c2ccc(Br)cc2)CC1c1nc2ccccc2[nH]1 (stereo unspecified)	inconclusive: 26.9 µM [inhibitor, single point]	–

Compound	Potency	activity change, negative = inhibition
CNC(=S)N/N=C/c1cn(Cc2c(F)cccc2Cl)c2ccccc12	inconclusive: 37.9 µM [inhibitor, partial curve, poor fit]	–
COC(=O)C(C)Oc1ccc2cc(-c3ccccc3)c(=O)oc2c1 (stereo unspecified)	active: 23.9 µM	–
CCOC(=O)c1ccc(CC2S/C(=C(\C#N)C(C)=O)NC2=O)cc1 (stereo unspecified)	inconclusive: 21.3 µM [inhibitor, single point]	–
O=Nc1ccc(NOC(=O)c2ccc(Br)cc2)cc1	active: 0.0757 µM	–
Cc1ccc(C)c(OCCC(=O)NCCc2ccc(S(N)(=O)=O)cc2)c1	–	inactive: 2.82%
O=C(/C=C/c1ccccc1)c1ccc(NC2=NCCCS2)cc1	active: 4.26 µM	–
COc1ccc(Nc2nnc(SCC(=O)/C=C3/N(C)c4ccccc4C3(C)C)s2)cc1	inconclusive: 21.3 µM [inhibitor, single point]	–
COc1ccccc1N/N=C/c1c(CO)cnc(C)c1O	active: 13.5 µM	–
O=S(=O)(c1ccccc1)c1nc(-c2cccs2)oc1SCc1ccccc1Cl	–	inactive: 0.615%
COC(=O)c1ccc2[nH]c(C(C)(C)O)c(C)c2c1	active: 19 µM	–
COc1ccc2[nH]c3ccc(OC)cc3c2c1	active: 21.3 µM	–
Cc1ccc(-c2noc(C3CCCCC3)n2)cc1	inconclusive: 6.01 µM [inhibitor, partial curve, poor fit]	–
CCn1c(=O)sc2cc(NC(=O)c3cccc(OC)c3)ccc21	inconclusive: 23.9 µM [inhibitor, partial curve]	–
CCOC(=O)c1cccc(NC(=O)c2cc3sccc3n2C)c1	active: 23.9 µM	–
O=C(Nc1ccccc1C(=O)O)c1ccc(NC(=O)C2CCCO2)cc1 (stereo unspecified)	active: 6.75 µM	–
CCOC(=O)c1cnc2c(c(C)nn2-c2ccc(C)cc2)c1Cl	inconclusive: 13.5 µM [inhibitor, partial curve]	–
CCOC(=O)c1ccc(N=c2ssnc2Cl)cc1	inconclusive: 23.9 µM [inhibitor, single point]	–
CCN1CCN(c2nnc(-n3cccc3C(=O)Nc3cccc(OC)c3)s2)CC1	–	inactive: -3.84%
CCOC(=O)c1sc(-c2ccc(OC)cc2)cc1N	inconclusive: 0.675 µM [inhibitor, single point]	–
O=C(Cn1ccn(-c2ccc(F)c(F)c2)c(=O)c1=O)c1ccc(F)cc1	–	inactive: -6.19%
O=C(Nc1nnc(N2CCCCCC2)s1)Nc1ccccc1C(F)(F)F	inconclusive: 21.3 µM [inhibitor, partial curve]	–
COc1cc(NC(=O)c2cc(OC)c(OC)c(OC)c2)c(OC)cc1NC(=O)CN1CCCCC1	active: 13.5 µM	–
CC(C)c1ccc(/C=C/c2[nH]c(=O)[nH]c(=O)c2[N+](=O)[O-])cc1	inconclusive: 37.9 µM [inhibitor, single point]	–
